Measurements published in patent publication US20230159453A1 (COCRYSTAL PHARMA, INC., priority 2020, published 2023).

Molecular target: Noro protease (Norovirus, UniProt Q83883)
Experiment: Norovirus protease inhibition assay (Noro-Norwalk FRET protease assay)
Conditions: IC50 (μM), peptide substrate 10 μM, 90 minutes at 37° C., compounds 200 μM to 10.2 nM

SMILES | IC50 [µM]
CCNC(=O)C(=O)[C@H](C[C@@H]1CCNC1=O)NC(=O)[C@H](CC1CCCCC1)NC(=O)OC(c1ccccc1)C(C)(C)c1cccc(Cl)c1 (stereo partly drawn) [Compound C211, 2-(3-Chlorophenyl)-2-methyl-1-phenylpropyl ((S)-3-cyclohexyl-1-(((S)-4-(ethylamino)-3,4-dioxo-1-((S)-2-oxopyrrolidin-3-yl)butan-2-yl)amino)-1-oxopropan-2-yl) carbamate] | 57.8
CC(C)(C)C(=O)N1CCC2(CC1)CC(CC(C=O)NC(=O)[C@H](CC1CCCCC1)NC(=O)OCc1cccc(Cl)c1)C(=O)N2 (stereo partly drawn) [Compound C212, 3-Chlorobenzyl ((2S)-3-cyclohexyl-1-oxo-1-((1-oxo-3-(2-oxo-8-pivaloyl-1,8-diazaspiro[4.5]decan-3-yl)propan-2-yl)amino)propan-2-yl)carbamate] | 5.3
O=C(N[C@@H](CC1CCCCC1)C(=O)N[C@@H](C[C@@H]1CCNC1=O)C(=O)C(=O)NC1CC1)OC(c1cccc(Cl)c1)C1(c2cccc(Cl)c2)CC1 (some centres unmarked) [Compound C213] | 18.9
COc1cccc2[nH]c(C(=O)N[C@@H](CC(C)C)C(=O)NC(C=O)CC3CC4(CCCCC4)NC3=O)cc12 (stereo partly drawn) [Compound C214, 4-Methoxy-N-((2S)-4-methyl-1-oxo-1-((1-oxo-3-(2-oxo-1-azaspiro[4.5]decan-3-yl)propan-2-yl)amino)pentan-2-yl)-1H-indole-2-carboxamide] | 4.6
CC(C)C[C@H](NC(=O)OC1(Cc2ccccc2)CCC1)C(=O)N[C@@H](C[C@@H]1CCNC1=O)C(=O)CO [Compound C215, 1-Benzylcyclobutyl ((S)-1-(((S)-4-hydroxy-3-oxo-1-((S)-2-oxopyrrolidin-3-yl)butan-2-yl)amino)-4-methyl-1-oxopentan-2-yl) carbamate] | > 200
CC(C)C(OC(=O)N[C@@H](CC1CCCCC1)C(=O)N[C@@H](C[C@@H]1CCNC1=O)C(=O)C(N)=O)c1ccccc1 (stereo partly drawn) [Compound C216, 2-Methyl-1-phenylpropyl ((S)-1-(((S)-4-amino-3,4-dioxo-1-((S)-2-oxopyrrolidin-3-yl)butan-2-yl)amino)-3-cyclohexyl-1-oxopropan-2-yl)carbamate] | > 200
CC1(C)CC(CC(NC(=O)[C@H](CC2CCCCC2)NC(=O)OC(Cc2cccc(Cl)c2)c2ccccc2)C(=O)C(N)=O)C(=O)N1 (stereo partly drawn) [Compound C217, 2-(3-Chlorophenyl)-1-phenylethyl ((2S)-1-((4-amino-1-(5,5-dimethyl-2-oxopyrrolidin-3-yl)-3,4-dioxobutan-2-yl)amino)-3-cyclohexyl-1-oxopropan-2-yl) carbamate] | > 200
CC(C)C[C@H](NC(=O)OC(c1ccccc1)C(C)(C)c1cccc(Cl)c1)C(=O)NC(CC1CC(C)(C)NC1=O)C(=O)C(N)=O (stereo partly drawn) [Compound C218, 2-(3-Chlorophenyl)-2-methyl-1-phenylpropyl ((2S)-1-((4-amino-1-(5,5-dimethyl-2-oxopyrrolidin-3-yl)-3,4-dioxobutan-2-yl)amino)-4-methyl-1-oxopentan-2-yl)carbamate] | > 200
CCN(CC)C(=O)C(=O)[C@H](C[C@@H]1CCNC1=O)NC(=O)[C@H](CC1CCCCC1)NC(=O)OC(c1ccc2ccccc2c1)C(C)(C)c1cccc(Cl)c1 (stereo partly drawn) [Compound C219, 2-(3-Chlorophenyl)-2-methyl-1-(naphthalen-2-yl) propyl ((S)-3-cyclohexyl-1-(((S)-4-(diethylamino)-3,4-dioxo-1-((S)-2-oxopyrrolidin-3-yl)butan-2-yl)amino)-1-oxopropan-2-yl)carbamate] | > 200
CC1(C)CC(CC(NC(=O)[C@H](CC2CCCCC2)NC(=O)OC(c2cccc(F)c2)C(C)(C)c2cccc(Cl)c2)C(=O)C(N)=O)C(=O)N1 (stereo partly drawn) [Compound C220, 2-(3-Chlorophenyl)-1-(3-fluorophenyl)-2-methylpropyl ((2S)-1-((4-amino-1-(5,5-dimethyl-2-oxopyrrolidin-3-yl)-3,4-dioxobutan-2-yl)amino)-3-cyclohexyl-1-oxopropan-2-yl)carbamate] | > 200
O=C(N[C@@H](CC1CCCCC1)C(=O)N[C@@H](C[C@@H]1CCNC1=O)C(=O)NS(=O)(=O)C1CC1)OCc1cccc(Cl)c1 [Compound C221, 3-Chlorobenzyl ((S)-3-cyclohexyl-1-(((S)-1-(cyclopropanesulfonamido)-1-oxo-3-((S)-2-oxopyrrolidin-3-yl)propan-2-yl)amino)-1-oxopropan-2-yl) carbamate] | > 200
CC1(C)CC(CC(C=O)NC(=O)[C@H](CC2CCCCC2)NC(=O)OC(c2cccc(F)c2)C(C)(C)c2cccc(Cl)c2)C(=O)N1 (stereo partly drawn) [Compound C222, 2-(3-Chlorophenyl)-1-(3-fluorophenyl)-2-methylpropyl ((2S)-3-cyclohexyl-1-((1-(5,5-dimethyl-2-oxopyrrolidin-3-yl)-3-oxopropan-2-yl)amino)-1-oxopropan-2-yl)carbamate] | 13.8
O=CC(CC1CC2(CCCCC2)NC1=O)NC(=O)[C@H](CC1CCCCC1)NC(=O)OC1CCCC1Cc1cccc(Cl)c1 (stereo partly drawn) [Compound C223, 2-(3-Chlorobenzyl)cyclopentyl ((2S)-3-cyclohexyl-1-oxo-1-((1-oxo-3-(2-oxo-1-azaspiro[4.5]decan-3-yl)propan-2-yl)amino)propan-2-yl)carbamate] | 22.6
O=C[C@H](C[C@@H]1CCNC1=O)NC(=O)[C@H](CC1CCCCC1)NC(=O)O[C@H]1CCC[C@H]1Cc1cccc(Cl)c1 [Compound C224, (1S,2S)-2-(3-Chlorobenzyl) cyclopentyl ((S)-3-cyclohexyl-1-oxo-1-(((S)-1-oxo-3-((S)-2-oxopyrrolidin-3-yl)propan-2-yl)amino)propan-2-yl) carbamate] | 7.8
O=CC(CC1CC2(CCOCC2)NC1=O)NC(=O)[C@H](CC1CCCCC1)NC(=O)OC1CCCC1Cc1cccc(Cl)c1 (stereo partly drawn) [Compound C225, 2-(3-chlorobenzyl)cyclopentyl ((2S)-3-cyclohexyl-1-oxo-1-((1-oxo-3-(2-oxo-8-oxa-1-azaspiro[4.5]decan-3-yl)propan-2-yl)amino)propan-2-yl)carbamate] | 7
CC(C)C[C@H](NC(=O)OC(c1ccc(Cl)cc1)C(C)(C)c1cccc(Cl)c1)C(=O)N[C@@H](C[C@@H]1CCNC1=O)C(=O)C(=O)NC1CC1 (stereo partly drawn) [Compound C226, 2-(3-chlorophenyl)-1-(4-chlorophenyl)-2-methylpropyl ((S)-1-(((S)-4-(cyclopropylamino)-3,4-dioxo-1-((S)-2-oxopyrrolidin-3-yl)butan-2-yl)amino)-4-methyl-1-oxopentan-2-yl)carbamate] | 169
COc1cccc2[nH]c(C(=O)N[C@@H](CC(C)C)C(=O)NC(CC3CC4(CCCCC4)NC3=O)C(=O)CCl)cc12 (stereo partly drawn) [Compound C227, N-((2S)-1-((4-chloro-3-oxo-1-(2-oxo-1-azaspiro[4.5]decan-3-yl)butan-2-yl)amino)-4-methyl-1-oxopentan-2-yl)-4-methoxy-1H-indole-2-carboxamide] | > 200
O=C(O)C(=O)C(CC1CC2(CCCCC2)NC1=O)NC(=O)[C@H](CC1CCCCC1)NC(=O)c1cc2ccccc2[nH]1 (stereo partly drawn) [Compound C228, 3-((S)-3-Cyclohexyl-2-(1H-indole-2-carboxamido)propanamido)-2-oxo-4-(2-oxo-1-azaspiro[4.5]decan-3-yl)butanoic acid] | 25.8
O=CC(CC1CC2(CCC2)NC1=O)NC(=O)[C@H](CC1CCCCC1)NC(=O)OCc1cccc(Cl)c1 (stereo partly drawn) [Compound C229, 3-Chlorobenzyl ((2S)-3-cyclohexyl-1-oxo-1-((1-oxo-3-(6-oxo-5-azaspiro[3.4]octan-7-yl)propan-2-yl)amino)propan-2-yl)carbamate] | 4.6
CC(C)C[C@H](NC(=O)OC(Cc1ccccc1)C(C)C)C(=O)N[C@H](C=O)C[C@@H]1CCNC1=O (stereo partly drawn) [Compound C230, 3-Methyl-1-phenylbutan-2-yl ((S)-4-methyl-1-oxo-1-(((S)-1-oxo-3-((S)-2-oxopyrrolidin-3-yl)propan-2-yl)amino)pentan-2-yl)carbamate] | 13.4
CCOC(=O)/C=C/[C@H](C[C@@H]1CCNC1=O)NC(=O)[C@H](CC(C)C)NC(=O)OC(Cc1ccccc1)c1ccccc1 (stereo partly drawn) [Compound C232, Ethyl (4S, E)-4-((2S)-2-(((1,2-diphenylethoxy)carbonyl)amino)-4-methylpentanamido)-5-((S)-2-oxopyrrolidin-3-yl) pent-2-enoate] | > 200
COc1cccc2[nH]c(C(=O)N[C@@H](CC(C)C)C(=O)NC(CC3CC4(CCCCC4)NC3=O)C(=O)CO)cc12 (stereo partly drawn) [Compound C233, N-((2S)-1-((4-hydroxy-3-oxo-1-(2-oxo-1-azaspiro[4.5]decan-3-yl)butan-2-yl)amino)-4-methyl-1-oxopentan-2-yl)-4-methoxy-1H-indole-2-carboxamide] | > 200
COc1cccc2[nH]c(C(=O)N[C@@H](CC(C)C)C(=O)NC(CC3CC4(CCCCC4)NC3=O)C(=O)C(=O)NC3CC3)cc12 (stereo partly drawn) [Compound C234, N-((2S)-1-((4-(cyclopropylamino)-3,4-dioxo-1-(2-oxo-1-azaspiro[4.5]decan-3-yl)butan-2-yl)amino)-4-methyl-1-oxopentan-2-yl)-4-methoxy-1H-indole-2-carboxamide] | 124
CC(C)(c1cccc(Cl)c1)C(OC(=O)N[C@@H](CC1CCCCC1)C(=O)N[C@@H](C[C@@H]1CCNC1=O)C(=O)C(=O)O)c1ccc2ccccc2c1 (stereo partly drawn) [Compound C235, (3S)-3-((2S)-2-(((2-(3-Chlorophenyl)-2-methyl-1-(naphthalen-2-yl)propoxy)carbonyl)amino)-3-cyclohexylpropanamido)-2-oxo-4-((S)-2-oxopyrrolidin-3-yl)butanoic acid] | 8.9
CC(C)C[C@H](NC(=O)OC(c1ccccc1)C(C)(C)c1cccc(Cl)c1)C(=O)N[C@@H](C[C@@H]1CCNC1=O)C(=O)CO (stereo partly drawn) [Compound C236, 2-(3-Chlorophenyl)-2-methyl-1-phenylpropyl ((S)-1-(((S)-4-hydroxy-3-oxo-1-((S)-2-oxopyrrolidin-3-yl)butan-2-yl)amino)-4-methyl-1-oxopentan-2-yl)carbamate] | 185
CC(C)C[C@H](NC(=O)OC(Cc1ccccc1)C1CCCCC1)C(=O)N[C@H](C=O)C[C@@H]1CCNC1=O (stereo partly drawn) [Compound C237, 1-Cyclohexyl-2-phenylethyl ((S)-4-methyl-1-oxo-1-(((S)-1-oxo-3-((S)-2-oxopyrrolidin-3-yl)propan-2-yl)amino)pentan-2-yl)carbamate] | 8.6
